Measured values taken from PubChem BioAssay AID504706 (National Center for Advancing Translational Sciences (NCATS), 2011).
The campaign covered roughly 320,000 compounds. About 200 (0.062%) were called active. Inconclusive means that the source gave no clear call. Such entries were picked first, then a sample of the others. Calls follow the shape of the dose curve; as a rule, active = well fitted activation curve with a large enough effect; inconclusive = small, poorly fitted or top-dose-only effect; inactive = no such curve, though single readings can be large or run the other way. No potency is given beside an inconclusive call; the fits are too rough.

Test: qHTS assay for re-activators of p53 using a Luc reporter; also: nearly all actives have a fitted effect of over 45% in size
Settings: H1299 p53-A138V BP100-luciferase reporter, luminescence, 24 h; series mostly up to 92.2 µM
Method in brief: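 H1299 (p53-null), stable ts p53-A138V + BP100-Luc; 1000 cells/well, Opti-MEM/10% FBS; cpd 4 pt, 1:5; 24 h, 37 deg C, 5% CO2; detection reagent 10 min RT; luminescence.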
Potency is read from the fitted curve at half-maximal effect; tags tell the direction and shape of the fitted curve.

SMILES | Potency
Cc1ccc(C(=O)NCc2ccccn2)c(Cl)c1 | inconclusive [activator, partial curve, poor fit]
Cc1[nH]cnc1C(=O)N/N=C/c1c(Cl)cccc1Cl | inactive
CCOC(=O)C(NCc1ccc2c(c1)OCO2)(NC(=O)c1ccccc1)C(F)(F)F (centres undefined) | inactive
COc1ccccc1CN1CCCC(N2CCN(c3ccc(F)cc3)CC2)C1 (centres undefined) | inconclusive [activator, partial curve, poor fit]
O=C(c1ccccc1F)N1CCc2ccccc21 | inactive
COc1cccc(N2CCN(C(=O)c3[nH]c(C)c(C(C)=O)c3C)CC2)c1 | inactive
O=[N+]([O-])c1cc(Cl)c(O)c2ncccc12 | inconclusive [activator, partial curve, poor fit]
O=C(NC(=S)Nc1ncccn1)c1ccccc1Cl | inconclusive [activator, partial curve, poor fit]
COC(=O)COc1ccc(S(=O)(=O)NCc2ccncc2)cc1 | inconclusive [activator, single point]
Cn1cc(C(=O)N2CCc3ccccc32)cn1 | inconclusive [activator, partial curve]
c1ccc(CSc2ccc(-c3cccnc3)nn2)nc1 | inconclusive [activator, single point]
O=[N+]([O-])c1ccc2nonc2c1Nc1cccc(F)c1 | inactive
O=C(c1cc(COc2ccc(F)cc2F)on1)N1CC2C[C@@H]3CC1C[C@H](C2)C3 | inconclusive [activator, partial curve, poor fit]
Cc1c(C(=O)N(CCC#N)c2ccccc2)sc2nc3n(c(=O)c12)CCCC3 | inactive
Cc1cccc(-c2nnc(SCCOc3ccc4c(C)cc(=O)oc4c3)o2)c1 | inactive
CN(C(=O)CN1C(=O)S/C(=C\c2ccccc2Cl)C1=O)C1CCS(=O)(=O)C1 (centres undefined) | inconclusive [activator, single point]
Cc1cc(C)n(-c2nc(NCC(C)O)c3c4c(sc3n2)COC(C)(C)C4)n1 (centres undefined) | inactive
CCOC(=O)CNC(=O)CSc1ncnc2c1nnn2-c1ccc(F)cc1 | inactive
N#C/C(=C\c1ccco1)C(=O)NCC1CCCO1 (centres undefined) | inconclusive [activator, partial curve, poor fit]
CC1(C(=O)O)CCC(C(=O)Nc2ccccc2O)C1(C)C (centres undefined) | inactive
COC(=O)Cc1ccc(NC(=S)N2CCCC(C)C2)cc1 (centres undefined) | inconclusive [activator, partial curve, poor fit]
CCCOc1ccc(-c2nc(N3CCN(C)CC3)c3ccccc3n2)cc1 | inconclusive [activator, partial curve, poor fit]

SMILES | Potency
COc1cccc(C2Nc3ccccc3NC3=C2C(=O)CC(C)(C)C3)c1OC (centres undefined) | inconclusive [activator, partial curve]
CCOC(=O)c1sc(NC(=O)c2ccco2)c(C#N)c1C | inactive
Cc1ccc(-n2c(C)cc(C(=O)CN3CCOCC3)c2C)cc1 | inconclusive [activator, full curve, poor fit]
O=C(/C=C/c1ccco1)NC(=S)Nc1ccccn1 | inconclusive [activator, partial curve, poor fit]
CCCOC(=O)Nc1ccc(C(N)=O)cc1 | inconclusive [activator, partial curve]
CCN(CC)S(=O)(=O)c1ccc(N=NC2=C(O)CCCC2=O)cc1 | inconclusive [activator, partial curve, poor fit]
Cc1ccc(/C=N/NC(=O)c2cccs2)cc1[N+](=O)[O-] | inactive
CC(C)(C)C(=O)NC(=S)Nc1ccccc1F | inconclusive [activator, partial curve, poor fit]
COc1ccc(-c2csc(NC3OC(=O)c4ccccc43)n2)cc1 (centres undefined) | inconclusive [activator, partial curve, poor fit]
CCc1ccccc1N(C)S(=O)(=O)c1ccc2[nH]cc(C(=O)N3CCc4ccccc43)c(=O)c2c1 | inactive
O=C(CSCc1ccccc1)Nc1ccc(F)c(F)c1 | inconclusive [activator, partial curve, poor fit]
O=c1cc2[nH]c3ccccc3c(=O)n2nc1-c1ccccc1 | inconclusive [activator, partial curve, poor fit]
Cc1onc(-c2ccccc2Cl)c1C(=O)NNC(=O)C1CCN(Cc2ccccc2)CC1 | inconclusive [activator, single point]
CC(C)(C)NC(=O)C(=O)NNC(=O)c1cccc(F)c1 | inconclusive [activator, partial curve, poor fit]
c1ccc2cc3c(NCCN4CCOCC4)ccnc3cc2c1 | inconclusive [activator, full curve, poor fit]
O=C(c1cc(-c2ccc3c(c2)OCO3)on1)N1CCN(c2ccccc2)CC1 | inconclusive [activator, partial curve, poor fit]
CN1CC2=Cc3ccccc3OC23Oc2ccccc2C=C3C1 | inconclusive [activator, single point]
CCCCN(CC)S(=O)(=O)c1ccc(C(=O)Nc2nnc(CSC)o2)cc1 | inactive
O=C1NC(c2cccs2)Nc2sc3c(c21)CCCC3 (centres undefined) | inconclusive [activator, partial curve, poor fit]
COc1ccccc1/C=C/C(=O)Nc1ccc2c(c1)OCCO2 | inconclusive [activator, partial curve, poor fit]
O=C(Nc1ccc2nc3n(c(=O)c2c1)CCCCC3)c1ccccn1 | inconclusive [activator, partial curve, poor fit]
COc1ccc2nc(NC(=O)c3ccc(Br)s3)sc2c1 | inconclusive [activator, full curve, poor fit]
